Data reported in article PMC4336329 (PLoS ONE, 2015).
Hit rate of the full screen: of about 310,000 compounds, about 2,200 (0.71%) showed an effect of 50% or more. Effects have a minus sign here. This is one part of the list.

Each molecule was assayed against human ether-à-go-go-related gene (hERG) potassium channel (human, UniProt Q12809) (assay: primary screen, population patch clamp on CHO cells stably expressing hERG).
Sequence of human ether-à-go-go-related gene (hERG) potassium channel (Q12809 whole entry, looked up): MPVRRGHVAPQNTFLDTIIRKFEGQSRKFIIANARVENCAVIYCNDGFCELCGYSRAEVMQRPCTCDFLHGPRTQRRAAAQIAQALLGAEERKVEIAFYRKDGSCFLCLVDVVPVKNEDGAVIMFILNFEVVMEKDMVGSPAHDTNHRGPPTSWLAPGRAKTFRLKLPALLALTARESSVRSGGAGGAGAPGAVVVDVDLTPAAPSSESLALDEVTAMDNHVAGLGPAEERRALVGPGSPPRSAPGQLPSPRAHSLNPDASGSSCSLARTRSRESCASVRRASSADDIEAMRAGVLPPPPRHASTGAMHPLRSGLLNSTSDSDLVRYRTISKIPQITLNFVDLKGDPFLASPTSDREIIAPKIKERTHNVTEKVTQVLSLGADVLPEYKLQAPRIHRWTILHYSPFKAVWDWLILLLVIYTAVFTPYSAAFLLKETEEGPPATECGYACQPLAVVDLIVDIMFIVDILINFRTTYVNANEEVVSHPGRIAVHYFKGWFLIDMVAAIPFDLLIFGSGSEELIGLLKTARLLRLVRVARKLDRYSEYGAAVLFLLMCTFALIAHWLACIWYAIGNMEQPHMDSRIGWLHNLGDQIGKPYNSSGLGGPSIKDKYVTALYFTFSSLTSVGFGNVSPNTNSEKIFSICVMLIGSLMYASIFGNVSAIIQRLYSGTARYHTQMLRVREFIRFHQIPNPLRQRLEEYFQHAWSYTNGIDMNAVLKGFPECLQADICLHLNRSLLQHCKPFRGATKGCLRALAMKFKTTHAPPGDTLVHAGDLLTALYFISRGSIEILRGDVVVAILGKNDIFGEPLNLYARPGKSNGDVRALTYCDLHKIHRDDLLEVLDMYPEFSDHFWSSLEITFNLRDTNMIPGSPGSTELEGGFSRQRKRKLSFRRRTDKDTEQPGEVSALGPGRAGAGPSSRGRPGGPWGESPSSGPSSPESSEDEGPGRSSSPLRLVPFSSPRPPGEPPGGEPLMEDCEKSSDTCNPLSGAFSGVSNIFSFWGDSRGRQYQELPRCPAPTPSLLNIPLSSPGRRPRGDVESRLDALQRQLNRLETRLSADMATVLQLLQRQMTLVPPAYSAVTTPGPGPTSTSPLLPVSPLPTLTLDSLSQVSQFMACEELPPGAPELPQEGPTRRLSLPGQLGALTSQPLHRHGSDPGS

Row | Compound | hERG current change (%, negative = inhibition) at 1uM [%]
1 | CCCS(=O)(=O)N1CCN(Cc2ccc([N+](=O)[O-])cc2)CC1.O=C(O)C(=O)O | -5.35
2 | CN(C(=O)COC(=O)c1ccc(Cl)cc1N)C1CCCCC1 | 8.95
3 | N/C(=N\OC(=O)c1cccc(Cn2cc(C(F)(F)F)ccc2=O)c1)c1ccccc1 | 8.43
4 | CC(C)c1nnc(SCC(=O)NCc2ccc3c(c2)OCO3)n1C | -0.917
5 | CCC(=O)Nc1nonc1-c1nc2ccccc2n1Cc1cccc2ccccc12 | 10.5
6 | CCCCc1ccc(NC(=O)CSC2=NN3CCCC(=O)N=C3S2)cc1 | 4.68
7 | Cc1cc(=O)[nH]c(SCC(=O)C23CC4CC(CC(C4)C2)C3)c1C#N | 13.6
8 | COc1ccc(C(=O)NC2CC2)cc1OC1CCN(Cc2ccc(F)cc2)CC1 | -81.9
9 | O=C(C1=C(O)C(=O)N(CCc2ccccc2)C1c1cccnc1)c1ccco1 (centres unmarked) | 5.33
10 | CCC(=O)c1ccc(OCC(=O)NCC2COc3ccccc3O2)cc1 (centres unmarked) | -1.99
11 | CCN(CC)S(=O)(=O)c1cc(C(=O)OCC(=O)Nc2cccc(C)c2C)ccc1F | 8.54
12 | CN(c1cccc(NC(=O)CCSc2ccccc2)c1)S(C)(=O)=O | -2.89
13 | COc1ccccc1NS(=O)(=O)c1ccc(Br)s1 | -9.96
14 | Fc1ccc(-c2cc(-c3cccs3)cc(-c3ccccc3)n2)cc1 | 12.7
15 | COC(=O)CC1=C(C(=O)OC)C(c2ccc3c(c2Cl)OCO3)C(C#N)=C(N)O1 (centres unmarked) | -7.56
16 | CC1CCCCN1Cc1c(O)ccc2c(=O)c(-c3ccc(Cl)cc3Cl)coc12 (centres unmarked) | -4.43
17 | Cc1cc(C)c(C(=O)COC(=O)CCNS(=O)(=O)c2c(Cl)cccc2Cl)cc1C | 12.2
18 | CC1(C)S[C@@H]2[C@H](N=CN3CCCCCC3)C(=O)N2[C@H]1C(=O)O | 7.21
19 | CCCCC(CC(O)COCCC)c1n[nH]c(=S)n1-c1ccccc1 (centres unmarked) | 10.8
20 | CC1(C)SC2c3ccccc3C(=O)N2[C@@H]1C(=O)NCc1ccco1 (some centres unmarked) | 6.96
21 | O=C1c2ccccc2C(Nc2ccc3c(c2)OCCO3)N1c1ccccn1 (centres unmarked) | 1.35
22 | COc1cccc(OC)c1C(=O)n1nc(C)cc1C | 8.86

Row | Compound | hERG current change (%, negative = inhibition) at 1uM [%]
23 | CCN(Cc1ccccc1)S(=O)(=O)c1csc(C(N)=O)c1 | -2.28
24 | O=C(CCCn1cc([N+](=O)[O-])cn1)NC1CCCCCC1 | 4.37
25 | CCOc1cccc2cc(C(N)=O)c(=NCc3ccccc3)oc12 | 0.376
26 | COc1cc(CNn2nnnc2N)ccc1OCC(=O)NC(C)(C)C | 0.339
27 | COc1ccc(-n2c(O)c(C=NCCN3CCN(C(C)=O)CC3)c(=O)[nH]c2=S)cc1 | 13.2
28 | Cc1ccccc1NC(=O)CCC(=O)N/N=C/c1cc([N+](=O)[O-])ccc1O | 0.664
29 | O=C(NCc1ccco1)c1ccc(Cn2c(=O)c3ccccc3n(Cc3cccc(F)c3)c2=O)cc1 | 7.65
30 | CC(C)CC1NC(=O)N(Cc2nc3ccccc3s2)C1=O (centres unmarked) | 1.54
31 | COc1cccc(NC(=O)CN(C)C(=O)c2cc(-c3ccccc3)nc3ccccc23)c1 | 12.5
32 | Cc1cc(N/C(=N\S(=O)(=O)c2ccc(Cl)cc2)c2ccc(F)cc2)no1 | 1.04
33 | COc1cc(SC)ccc1C(=O)NCCN1CCOCC1 | 15
34 | O=c1sc(Nc2ccccc2)nc2ccccc12 | 4.24
35 | CCOC(=O)C(Oc1ccc2c(-c3ccccc3)cc(=O)oc2c1)c1ccccc1 (centres unmarked) | 10.7
36 | Cc1ccc2nc(Nc3ccccc3O)nc(-c3ccccc3)c2c1 | 15.8
37 | CCOc1ncccc1C(=O)NCc1ccccc1 | 9.9
38 | CC1=CCC2C(=O)N(CCc3c[nH]c4ccccc34)C(=O)C2C1 (centres unmarked) | 2.89
39 | CC(C)CN1CCN(C(=O)CCc2nnc(Cc3c[nH]c4ccccc34)o2)[C@@H](C)C1=O | 6.1
40 | CCCCS(=O)(=O)Nc1ccc2cn[nH]c2c1 | 3.5
41 | Cc1cc(C)c(NC(=S)N(CCc2ccncc2)C(C)C)c(C)c1 | 2.51
42 | CCc1ccccc1N(C)S(=O)(=O)c1cc(-c2cc(C)no2)ccc1OC | 15.3
43 | Cc1ccc(-n2ncc3c2CC(C)(C)CC3NC(=O)CCN2CCCCC2=O)cc1 (centres unmarked) | 1.85
44 | CN(C)CCNC(=S)Nc1ccc(Cl)cc1 | 6.76

Row | Compound | hERG current change (%, negative = inhibition) at 1uM [%]
45 | O=C(COc1ccc([N+](=O)[O-])cc1)Nc1ccc(C(=O)Nc2ccccc2C(=O)O)cc1 | -6.32
46 | CN(C(=O)COC(=O)C1CSC2(C)CCC(=O)N12)c1ccccc1 (centres unmarked) | 6.89
47 | CCN(CC)S(=O)(=O)c1ccc(N2CCCC2)c(NC(=O)c2ccncc2)c1 | -5.02
48 | COc1ccc(-n2c3c(c(=O)[nH]c2=O)C(NS(=O)(=O)c2ccc(Cl)cc2)(C(F)(F)F)C(=O)N3)cc1 (centres unmarked) | 12
49 | CC(C)N(C(=O)/C=C/c1cccc([N+](=O)[O-])c1)C(C)C | 7.97
50 | Cc1cc(=O)oc2cc(NC(=O)c3ccnn3C)ccc12 | 14.4
51 | COc1ccc(C(=O)NC2CCc3ccccc32)cc1OC1CCN(C(C)C)CC1 (centres unmarked) | -1.49
52 | CCOc1ccccc1NC(=O)C(=O)/C=C(\O)c1cc(OC)ccc1OC | 19.4
53 | COC(C(=O)Nc1ccnn1C1CCN(Cc2cnn(C(C)C)c2)CC1)c1ccccc1 (centres unmarked) | 4.49
54 | Cn1c2ccccc2c2nnc(SCc3nnc(-c4ccccc4)o3)nc21 | -12.2
55 | CC(C)OCCCNC(=O)CNC(=O)c1cccs1 | 12.3
56 | Cc1ccccc1CC1(CO)CCCN(C(=O)c2ccc3ncccc3c2)C1 (centres unmarked) | 14.5
57 | Cc1nc(NC(=O)CSc2nnc3ccccn23)c(Cl)cc1Cl | 0.223
58 | O=C(NCC1CCCO1)c1cnc(Cl)c(Cl)c1 (centres unmarked) | 12.1
59 | O=C(c1cccn2c(=O)c3ccccc3nc12)N1CCN(Cc2ccc3c(c2)OCO3)CC1 | -54.4
60 | Cc1ccc(/C=N/NC(=O)CN2CCN(Cc3ccccc3)CC2)s1 | -22
61 | COc1ccc(-c2csc(N)n2)cc1 | 5.19
62 | CCN1C(=O)CC(N2CCC(Nc3ccc(F)cc3)CC2)C1=O (centres unmarked) | 8.57
63 | NS(=O)(=O)c1ccc(NCc2ccccc2OCc2ccc(F)cc2)cc1 | -12.3
64 | O=[N+]([O-])c1ccc(Cl)c(CN2CCN(c3ncccn3)CC2)c1 | 9
65 | NS(=O)(=O)c1ccc(NC(=O)COC(=O)CNC(=O)C23CC4CC(CC(C4)C2)C3)cc1 | -0.322
66 | Cc1ccc(C)c(NC(=O)C2CCCN2C(=O)OC(C)(C)C)c1 (centres unmarked) | 9.8

Row | Compound | hERG current change (%, negative = inhibition) at 1uM [%]
67 | Cc1cnc(C(=O)Nc2ccc(C)c(S(=O)(=O)N3CCCCC3)c2)cn1 | 2.5
68 | Cc1ccc(N2C(=O)NC(=O)/C(=C/C=C/c3ccco3)C2=O)cc1 | 10.9
69 | COc1cc2c(cc1OC)C1=C(C#N)CC/C(=N\S(=O)(=O)c3cccc(Cl)c3)N1CC2 | -3.52
70 | O=c1cc(CN2CCN(Cc3ccccc3)CC2)c2ccc(O)c(O)c2o1 | -21.7
71 | CC(C)n1nnnc1SCC(=O)N1CCN(Cc2ccc3c(c2)OCCO3)CC1 | 2.08
72 | c1ccc(-c2ccc3sccc3n2)cc1 | 12.8
73 | Cc1ccc(NC(=O)C(C)OC(=O)Cc2c[nH]c3ccccc23)cc1 (centres unmarked) | 1.69
74 | O=C(Nc1ccc(N2CCOCC2)c(S(=O)(=O)Nc2cc(Cl)ccc2Cl)c1)c1cccnc1 | 3.94
75 | Cc1ccc(S(=O)(=O)c2c(N)n(Cc3ccco3)c3nc4ccccc4nc23)cc1C | -2.5
76 | CC(C)(C)NC(=O)[C@@H]1C[C@@H]2CCCC[C@@H]2CN1C[C@@H](O)[C@H](Cc1ccccc1)NC(=O)[C@H](CC(N)=O)NC(=O)c1ccc2ccccc2n1.CS(=O)(=O)O | -12.7
77 | O=c1[nH]c(=S)n(C2CC2)c(O)c1C=NCCc1ccccc1 | 8.78
78 | COCCn1nnnc1CN(Cc1ccco1)Cc1cc2cc3c(cc2[nH]c1=O)OCO3 | -3.33
79 | COc1ccc(N=C(c2ccccc2)c2c(C)[nH]n(-c3ccccc3)c2=O)c(OC)c1 | 7.06
80 | O=C(NC(=S)Nc1ccccc1Cl)c1ccco1 | 13.2
81 | Cc1[nH]nc(SCC(=O)N2CCCC2)c1[N+](=O)[O-] | 3.07
82 | Cc1cc(C)nc(Sc2ccc(/C=C(\C#N)C(N)=O)o2)n1 | 0.7
83 | Cc1nc2ccccc2c2oc(C(=O)N3CCC(C)CC3)cc12 | -2.21
84 | CCN(CC)S(=O)(=O)c1cc(OC)ccc1N=Nc1ccc(O)c2ncccc12 | 13.5
85 | COC(=O)Cn1cc(C(=O)c2ccccc2F)c2ccccc21 | 14.3
86 | COc1cc(NC(=O)Cc2ccccc2)nc(OC)n1 | 11.6
